In patent US20260216242A1 (ALMAC DISCOVERY, published 2026):

Legend:
[1] = target: human ALPP (alkaline phosphatase, placental type) stably expressed on the surface of CHO cells (human, UniProt P05187 23-506); experiment: cell-based or functional assay
[2] = target: human ALPPL2 (alkaline phosphatase, germ cell type) stably expressed on the surface of CHO cells (human, UniProt P10696 20-503); experiment: cell-based or functional assay

B1: A06 F05-hFc (S239C F405L/K409R) conjugated to MC-vc-PAB-MMAE (Fc fusion, DAR 2)
chain 1: QVHLVESGGGLVQAGGSLRLSCAASGRTFLSMGWFRQAPGKEREFVAAISWTGGSTGYADSVKGRFTISRESDKETMYLQMNSLKPEDTAVYYCAARGDVYYGGDDATRYKYWGQGTQVTVSSGGGGSGGGGSGGGGS[human IgG1 Fc with changes not spelt out]
chain 2: QVQLVESGGGLVQAGGSLRLSCAASGRAFGDYNIGWFRQAPGKEREFVARRTWDGSSTRYDDSVKGRFTVSIDNAKNTAYLQMNSLKTEDTAVYYCAAGRYSRVRGWEYDYWGQGTQVTVSSGGGGSGGGGSGGGGS[human IgG1 Fc with changes not spelt out]
modifications: MC-vc-PAB-MMAE on Cys 239 (S239C, EU numbering)
IC50 @ 96 h (nM), cell-killing of CHO-ALPP cells (Cell Titre Glo) [1]: 36.4 nM
IC50 @ 96 h (nM), cell-killing of CHO-ALPPL2 cells (Cell Titre Glo) [2]: 45.5 nM

B2: D10 E10-hFc (S239C F405L/K409R) conjugated to MC-vc-PAB-MMAE (Fc fusion, DAR 2)
chain 1: QVQLVESGGGLVQPGGSLRLSCAASGSIFSVNTMGWYRQAPGKQRDLVAVATSGGTIHYADSVKGRFTISRDNAKNTVYLQMNSLKPEDTAVYYCNLVVPYGMIAGDHDYWGQGTKVTVSSGGGGSGGGGSGGGGS[human IgG1 Fc with changes not spelt out]
chain 2: QVQLVESGGGLVQAGGSLRLSCAVSGRALSDYNIGWFRQAPGKEREFVARKTWDGSSTRYDDSVKGRFTVSIEDAKNTAYLQMSSLKTEDTAVYYCAAGRYSRARGWEYDYWGQGTQVTVSSGGGGSGGGGSGGGGS[human IgG1 Fc with changes not spelt out]
modifications: MC-vc-PAB-MMAE on Cys 239 (S239C, EU numbering)
IC50 @ 96 h (nM), cell-killing of CHO-ALPP cells (Cell Titre Glo) [1]: 38.9 nM
IC50 @ 96 h (nM), cell-killing of CHO-ALPPL2 cells (Cell Titre Glo) [2]: 39.3 nM

B3: D10 A06-hFc (S239C F405L/K409R) conjugated to MC-vc-PAB-MMAE (Fc fusion, DAR 2.8)
chain 1: QVQLVESGGGLVQPGGSLRLSCAASGSIFSVNTMGWYRQAPGKQRDLVAVATSGGTIHYADSVKGRFTISRDNAKNTVYLQMNSLKPEDTAVYYCNLVVPYGMIAGDHDYWGQGTKVTVSSGGGGSGGGGSGGGGS[human IgG1 Fc with changes not spelt out]
chain 2: QVHLVESGGGLVQAGGSLRLSCAASGRTFLSMGWFRQAPGKEREFVAAISWTGGSTGYADSVKGRFTISRESDKETMYLQMNSLKPEDTAVYYCAARGDVYYGGDDATRYKYWGQGTQVTVSSGGGGSGGGGSGGGGS[human IgG1 Fc with changes not spelt out]
modifications: MC-vc-PAB-MMAE on Cys 239 (S239C, EU numbering)
IC50 @ 96 h (nM), cell-killing of CHO-ALPP cells (Cell Titre Glo) [1]: 18 nM
IC50 @ 96 h (nM), cell-killing of CHO-ALPPL2 cells (Cell Titre Glo) [2]: 626 nM

B4: D10 E06-hFc (S239C F405L/K409R) conjugated to MC-vc-PAB-MMAE (Fc fusion, DAR 2)
chain 1: QVQLVESGGGLVQPGGSLRLSCAASGSIFSVNTMGWYRQAPGKQRDLVAVATSGGTIHYADSVKGRFTISRDNAKNTVYLQMNSLKPEDTAVYYCNLVVPYGMIAGDHDYWGQGTKVTVSSGGGGSGGGGSGGGGS[human IgG1 Fc with changes not spelt out]
chain 2: QVHLVESGGGLVQAGGSLRLSCAASRRSFSEYAMGWFRQAPGKEREFVAAIGWSGVIEYADSVKGRFTISRDNAKDTVYLQMNSLKPEDTAVYYCAAGLGIRVVSQTPAYWGQGTQVTVSSGGGGSGGGGSGGGGS[human IgG1 Fc with changes not spelt out]
modifications: MC-vc-PAB-MMAE on Cys 239 (S239C, EU numbering)
IC50 @ 96 h (nM), cell-killing of CHO-ALPP cells (Cell Titre Glo) [1]: 35 nM
IC50 @ 96 h (nM), cell-killing of CHO-ALPPL2 cells (Cell Titre Glo) [2]: 46.9 nM
